Results from paper PMC4336329 (PLoS ONE, 2015).
Hit rate of the full screen: of about 310,000 compounds, about 2,200 (0.71%) showed an effect of 50% or more. Effects have a minus sign here. The list shows a part of the results.

biological target: human ether-à-go-go-related gene (hERG) potassium channel (human, UniProt Q12809); test: primary screen, population patch clamp on CHO cells stably expressing hERG
Sequence (Q12809 whole entry, looked up): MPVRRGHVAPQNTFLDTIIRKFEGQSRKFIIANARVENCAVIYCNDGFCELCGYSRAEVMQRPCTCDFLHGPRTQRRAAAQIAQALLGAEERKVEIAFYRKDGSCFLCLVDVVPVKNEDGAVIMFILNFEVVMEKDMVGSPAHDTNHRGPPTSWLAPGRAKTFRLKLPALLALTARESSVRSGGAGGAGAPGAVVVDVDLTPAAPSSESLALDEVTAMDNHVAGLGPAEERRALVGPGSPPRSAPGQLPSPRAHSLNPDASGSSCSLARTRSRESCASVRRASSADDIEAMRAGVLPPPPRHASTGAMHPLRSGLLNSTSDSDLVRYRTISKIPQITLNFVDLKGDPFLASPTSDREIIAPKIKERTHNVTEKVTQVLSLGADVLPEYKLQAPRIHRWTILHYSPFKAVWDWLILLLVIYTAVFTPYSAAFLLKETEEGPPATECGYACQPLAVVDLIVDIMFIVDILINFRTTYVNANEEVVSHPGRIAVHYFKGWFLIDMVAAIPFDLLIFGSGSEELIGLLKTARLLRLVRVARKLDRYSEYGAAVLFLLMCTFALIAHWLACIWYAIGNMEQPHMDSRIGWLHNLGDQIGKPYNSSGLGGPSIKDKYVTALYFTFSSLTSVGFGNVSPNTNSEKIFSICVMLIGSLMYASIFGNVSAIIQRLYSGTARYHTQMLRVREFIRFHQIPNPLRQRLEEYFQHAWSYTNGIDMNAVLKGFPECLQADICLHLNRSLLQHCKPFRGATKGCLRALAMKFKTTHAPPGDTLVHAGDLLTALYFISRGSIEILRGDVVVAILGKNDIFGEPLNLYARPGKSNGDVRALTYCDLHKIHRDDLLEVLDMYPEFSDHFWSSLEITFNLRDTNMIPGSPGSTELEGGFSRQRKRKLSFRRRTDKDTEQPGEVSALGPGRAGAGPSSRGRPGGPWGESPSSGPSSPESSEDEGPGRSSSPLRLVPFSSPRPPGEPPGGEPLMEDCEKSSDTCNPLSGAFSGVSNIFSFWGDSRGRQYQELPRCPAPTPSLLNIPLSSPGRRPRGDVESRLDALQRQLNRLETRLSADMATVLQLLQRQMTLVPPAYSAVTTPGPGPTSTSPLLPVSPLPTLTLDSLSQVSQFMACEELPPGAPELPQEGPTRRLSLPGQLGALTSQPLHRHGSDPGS

| SMILES | hERG current change (%, negative = inhibition) at 1uM |
| --- | --- |
| CCCC(C(=O)NC1CCCC1)N(Cc1ccccc1)C(=O)c1snc(C(N)=O)c1N (stereo not shown) | 11.5% |
| Cc1cc(Oc2ccc(C(F)(F)F)cc2[N+](=O)[O-])c2c3c(c(=O)oc2c1)CCCC3 | 13.1% |
| CC(=O)Nc1cccc(NC(=O)C2CCCN2C(=O)Nc2cccc(F)c2)c1 (stereo not shown) | 6.31% |
| CCOC(=O)c1ccc(N2Cc3ccccc3C2)cc1O | 8.1% |
| OCCC1CN(Cc2ccccn2)CCN1C1CCCC1 (stereo not shown) | 18.3% |
| Cc1c(Cl)cccc1NC(=S)NNc1ncc(C(F)(F)F)cc1Cl | 4.45% |
| CCn1nc(C)c(CNC(=O)Nc2ccccc2C(=O)OC)c1C | 0.0515% |
| Cc1ccc(C(=O)Nc2nc(-c3ccccn3)cs2)cc1S(=O)(=O)N1CCOCC1 | 0.449% |
| O=C(N/N=C/c1cccc(Br)c1)C1CC(=O)N(c2ccccc2)C1 (stereo not shown) | 15.5% |
| COc1ccc(NC(=O)CSc2ccc(-c3ccco3)nn2)cc1 | 18.9% |
| COc1cccc(/C(C)=N/NC(=O)c2ccc(N(C)C)cc2)c1 | 12.5% |
| O=C(COC(=O)c1n[nH]c2ccccc12)NC(=O)NC1CCCCC1 | 9.17% |
| O=C(NC(=S)Nc1nc(-c2ccccc2)cs1)c1cncc(Br)c1 | 12.3% |
| CC1=NN(c2ccccc2)C(=O)C1C(=O)C(=O)Nc1ccc(F)cc1 (stereo not shown) | 17.3% |
| CCc1ccc(NC(=O)CC2C(=O)N(c3cccc(OC)c3)C(=O)N2CCOC)cc1 (stereo not shown) | 12.8% |
| CCOC(=O)c1sc(C)c2c(=O)n(Cc3ccc(Cl)cc3)c(C)nc12 | 3.44% |
| COC(=O)C[N+](C)(C)C/C=C\c1ccccc1.[Br-] | 23.5% |
| CCN1CCN(C(=O)c2ccc3c(=O)n(CCc4ccccc4)c(=O)[nH]c3c2)CC1 | 0.866% |
| Cc1cccnc1NC(=O)CCc1c[nH]c2ccccc12 | 7.74% |
| N#Cc1cccc(NC(=O)N2CCC(c3nc4c(nnn4Cc4cccc(Cl)c4)c(=O)[nH]3)CC2)c1 | 10.5% |
| S=C(NC1CCCCC1)NC1CC2CCC(C1)N2Cc1ccccc1 (stereo not shown) | 1.28% |
| O=C(NCc1ccccc1)C1CCN(S(=O)(=O)c2ccc(N3CCCC3=O)cc2)CC1 | 6.4% |

| SMILES | hERG current change (%, negative = inhibition) at 1uM |
| --- | --- |
| CCC1(c2ccc(Cl)cc2)NC(=S)N(c2ccc(C)c(C)c2)N1 (stereo not shown) | 12.3% |
| CCOc1cc(/C=N/NC(=O)c2ccccc2OCc2ccc(F)cc2)ccc1O | 11.5% |
| Cn1c(C(=O)N2CCN(c3ccccn3)CC2)cc2ccccc21 | 11.5% |
| Oc1ccc(-c2nnc(Nc3cccc(O)c3)c3ccccc23)cc1 | 10.2% |
| CCOC(=O)N1CCN(C(=O)CSc2nc3ccccc3c(=O)n2-c2ccccc2)CC1 | -3.97% |
| CC(C)(C)n1nnnc1C(c1ccncc1)N1CCN(C2CCCCC2)CC1 (stereo not shown) | 10.1% |
| O=C(NCc1cccs1)C(=O)c1cn(CC(=O)N2CCOCC2)c2ccccc12 | 20.6% |
| CN(C(=O)c1ccc(Cl)c([N+](=O)[O-])c1)C1(C)CCS(=O)(=O)C1 (stereo not shown) | 5.16% |
| CC(C)CN(C(=O)CSc1ncnc2ccccc12)C1CCS(=O)(=O)C1 (stereo not shown) | 5.26% |
| COc1ccc(N2C(=O)C(F)(F)C2c2cccc(F)c2)cc1 (stereo not shown) | 13.1% |
| CCN(Cc1cc(OC)c(OC)c(OC)c1)C(=S)Nc1cccc(SC)c1 | 5.8% |
| Cc1ccccc1-n1c(C)nnc1SCC(=O)N1CCc2ccccc2C1 | -1.04% |
| COc1ccc(OCC(=O)NC2CC(C)(C)NC(C)(C)C2)cc1 | 14.8% |
| O=C(CSCc1ccc(Cl)cc1)Nc1cc([N+](=O)[O-])ccc1O | 21.7% |
| Cc1ccccc1OCCCn1c(=O)sc2ccccc21 | 15.7% |
| CCCCN(CCCC)S(=O)(=O)c1ccc(NC(=O)c2ccc([N+](=O)[O-])cc2Cl)cc1 | 17.5% |
| O=C(O)CCC(=O)NNc1nc2ccccc2nc1-c1ccccc1 | 3.77% |
| COc1ccc(CNC(=O)C2CCN(c3nnc(N4CCCC4=O)s3)CC2)cc1 | 1.91% |
| O=C(/C=C/c1ccccc1)NC(NC(=S)Nc1ccc(C(=O)O)cc1)C(Cl)(Cl)Cl (stereo not shown) | 9.18% |
| O=C(/C(=C(\[O-])c1ccccc1)[n+]1ccc2ccccc2c1)c1ccc(Cl)cc1 | 9.21% |
| O=C(CCC1CCCN(C(=O)C2(c3ccccc3)CC2)C1)N1CCN(c2ccccn2)CC1 (stereo not shown) | 7.52% |
